B1: PhoQ; a variant is named by its letters at X, in order, P23837 (parent)
chain: MKKLLRLFFPLSLRVRFLLATAAVVLVLSLAYGMVALIGYSVSFDKTTFRLLRGESNLFYTLAKWENNKLHVELPENIDKQSPTMTLIYDENGQLLWAQRDVPWLMKMIQPDWLKSNGFHEIEADVNDTSLLLSGDHSIQQQLQEVREDDDDAEMTHSVAVNVYPATSRMPKLTIVVVDTIPVELKSSYMVWSWFIYVLSANLLLVIPLLWVAAWWSLRPIEALAKEVRELEEHNRELLNPATTRELTSLVRNLNRLLKSERERYDKYRTTLTDLTHSLKTPLXXLQXXLRSLRSEKMSVSDAEPVMLEQISRISQQIGYYLHRASMRGGTLLSRELHPVAPLLDNLTSALNKVYQRKGVNISLDISPEISFVGEQNDFVEVMGNVLDNACKYCLEFVEISARQTDEHLYIVVEDDGPGIPLSKREVIFDRGQRVDTLRPGQGVGLAVAREITEQYEGKIVAGESMLGGARMEVIFGRQHSAPKDE

Some of the results follow.

In this assay the parent is B1. The assay can be described thus: enrichment ratio after two sorts for PhoP signalling (ratio (wild type AVST 3.29)); higher = more functional. As to conditions: with PhoP (E. coli).
Take MPQC: the enrichment ratio is not above 0.25.

On to GPRA, for which the enrichment ratio was not above 0.25.

Turning to QSKG, the enrichment ratio was not above 0.25.

DAPC: the enrichment ratio was not above 0.25.

As for TQIK, the enrichment ratio is not above 0.25.

For the variant HCFW, the enrichment ratio is not above 0.25.

For the variant KGIH, the enrichment ratio was not above 0.25.

On to FLLN, for which the enrichment ratio was not above 0.25.

On to MVLK, for which the enrichment ratio amounted to 1.76.

Turning to AFFL, the enrichment ratio was not above 0.25.

As for WQIG, the enrichment ratio is not above 0.25.

As for YAVV, the enrichment ratio was not above 0.25.

On to HQSE, for which the enrichment ratio was not above 0.25.

Consider LSNL, for which the enrichment ratio is not above 0.25.

As to LMGS, the enrichment ratio was not above 0.25.

As for EVIS, the enrichment ratio was not above 0.25.

As to YPPA, the enrichment ratio is not above 0.25.

With YNIR, the enrichment ratio is not above 0.25.

Turning to SGDA, the enrichment ratio was not above 0.25.

Turning to RNGI, the enrichment ratio was not above 0.25.

Take FINQ: the enrichment ratio is not above 0.25.

As for LLSE, the enrichment ratio is not above 0.25.

Turning to VYRD, the enrichment ratio is not above 0.25.

Turning to RFAD, the enrichment ratio is not above 0.25.

Take LSYY: the enrichment ratio was 2.31.

For VWKV, the enrichment ratio is not above 0.25.

As for TCVR, the enrichment ratio was not above 0.25.

On to RSLS, for which the enrichment ratio was not above 0.25.

For the variant PSCV, the enrichment ratio is not above 0.25.

For the variant SFPY, the enrichment ratio was not above 0.25.

Regarding ILRQ, the enrichment ratio is not above 0.25.

With PIVT, the enrichment ratio is not above 0.25.

Regarding VLIT, the enrichment ratio is not above 0.25.

For the variant GCHK, the enrichment ratio was not above 0.25.

In the case of VRFK, the enrichment ratio is not above 0.25.

In the case of VWLR, the enrichment ratio is not above 0.25.

In the case of VSPI, the enrichment ratio is not above 0.25.

Regarding IVDP, the enrichment ratio was not above 0.25.

Turning to EDMI, the enrichment ratio was not above 0.25.

MPTK: the enrichment ratio was not above 0.25.

Regarding NGKF, the enrichment ratio was 0.291.

Turning to NSSN, the enrichment ratio is not above 0.25.

VDVI: the enrichment ratio came to 0.415.

With YFLD, the enrichment ratio was not above 0.25.

With YTDM, the enrichment ratio was not above 0.25.

For YAKD, the enrichment ratio is not above 0.25.

For the variant QKQF, the enrichment ratio is not above 0.25.

With YGSL, the enrichment ratio was not above 0.25.

Regarding PGTR, the enrichment ratio is not above 0.25.

For the variant QHKP, the enrichment ratio was not above 0.25.

As to TPYW, the enrichment ratio is not above 0.25.

Regarding WVVS, the enrichment ratio was not above 0.25.

On to NYWI, for which the enrichment ratio is not above 0.25.

VLRN: the enrichment ratio was not above 0.25.

For the variant TIVI, the enrichment ratio was not above 0.25.

Consider WDCI, for which the enrichment ratio was not above 0.25.

Turning to KMQW, the enrichment ratio was not above 0.25.

With VRID, the enrichment ratio was not above 0.25.

In the case of SYVW, the enrichment ratio was not above 0.25.

As to RDHH, the enrichment ratio is not above 0.25.

As for KVSR, the enrichment ratio was not above 0.25.

Consider HIVG, for which the enrichment ratio is not above 0.25.

In the case of LGIP, the enrichment ratio is not above 0.25.

For the variant SNNS, the enrichment ratio turned out to be 7.54.

As for WART, the enrichment ratio is not above 0.25.

With YPQP, the enrichment ratio is not above 0.25.

Regarding ICMV, the enrichment ratio was 13.2.

On to FCWY, for which the enrichment ratio was 7.07.

DAWA: the enrichment ratio is not above 0.25.

ASSN: the enrichment ratio is 7.01.

Take HISW: the enrichment ratio was not above 0.25.

In the case of VSNI, the enrichment ratio is not above 0.25.

For the variant ESCY, the enrichment ratio was not above 0.25.

For the variant ISNH, the enrichment ratio was not above 0.25.

On to ALCA, for which the enrichment ratio is 3.41.

In the case of QDAA, the enrichment ratio was not above 0.25.

For QNVY, the enrichment ratio was not above 0.25.

Regarding GTYD, the enrichment ratio was not above 0.25.

Consider NFLA, for which the enrichment ratio is not above 0.25.

Consider VWDH, for which the enrichment ratio is not above 0.25.

Consider HGCN, for which the enrichment ratio is not above 0.25.

In the case of LKKC, the enrichment ratio was not above 0.25.

For KLRL, the enrichment ratio was 0.686.

Take LCTA: the enrichment ratio was not above 0.25.

Consider NWRL, for which the enrichment ratio was not above 0.25.

As for DQVQ, the enrichment ratio is not above 0.25.

As for WWWI, the enrichment ratio was not above 0.25.

With TCNR, the enrichment ratio is not above 0.25.

With KTMT, the enrichment ratio is not above 0.25.

Regarding RSKS, the enrichment ratio is not above 0.25.

Take ICWS: the enrichment ratio was not above 0.25.

In the case of YAQQ, the enrichment ratio is not above 0.25.

For the variant DLIL, the enrichment ratio is not above 0.25.

Take QVGP: the enrichment ratio is not above 0.25.

Turning to KKDI, the enrichment ratio was not above 0.25.

KIVQ: the enrichment ratio is not above 0.25.

With PACQ, the enrichment ratio was not above 0.25.

Consider ILDD, for which the enrichment ratio is not above 0.25.

Regarding KLSV, the enrichment ratio was not above 0.25.

As for SPYV, the enrichment ratio was not above 0.25.

On to IYPF, for which the enrichment ratio is not above 0.25.

On to ALFY, for which the enrichment ratio was not above 0.25.

With VYEF, the enrichment ratio is not above 0.25.

Turning to PAEL, the enrichment ratio is not above 0.25.

Consider IDMK, for which the enrichment ratio was not above 0.25.

Turning to SWWH, the enrichment ratio is not above 0.25.

As for RLQE, the enrichment ratio was not above 0.25.

For EPRC, the enrichment ratio is not above 0.25.

In the case of LHKP, the enrichment ratio was not above 0.25.

With LAYQ, the enrichment ratio was 7.

RVSW: the enrichment ratio was not above 0.25.

PWVP: the enrichment ratio is not above 0.25.

In the case of WGPC, the enrichment ratio is not above 0.25.

Consider YQHH, for which the enrichment ratio is not above 0.25.

As for MQYC, the enrichment ratio stood at 9.43.

For WGHK, the enrichment ratio was not above 0.25.

With WHMI, the enrichment ratio was not above 0.25.

KGIN: the enrichment ratio was not above 0.25.

Consider RQKF, for which the enrichment ratio was not above 0.25.

With MLMV, the enrichment ratio was not above 0.25.

With GQDT, the enrichment ratio is not above 0.25.

WHFN: the enrichment ratio is not above 0.25.

VHNE: the enrichment ratio is not above 0.25.

For IECP, the enrichment ratio was not above 0.25.

As for SYIE, the enrichment ratio is not above 0.25.

Regarding RAFY, the enrichment ratio was not above 0.25.

Regarding THFQ, the enrichment ratio was not above 0.25.

For the variant TVTK, the enrichment ratio amounted to 2.6.

Turning to FFCV, the enrichment ratio is not above 0.25.

As for TTHN, the enrichment ratio was 15.7.

Regarding GIFG, the enrichment ratio was not above 0.25.

With RTQC, the enrichment ratio was not above 0.25.

For the variant MHLM, the enrichment ratio came out at 1.26.

On to GEGI, for which the enrichment ratio is not above 0.25.

Turning to AVKL, the enrichment ratio is not above 0.25.

LECM: the enrichment ratio worked out at 17.2.

Turning to YEFG, the enrichment ratio was not above 0.25.

In the case of IRRA, the enrichment ratio was not above 0.25.

As to LPEG, the enrichment ratio was not above 0.25.

Turning to WTEK, the enrichment ratio is not above 0.25.

With YDTG, the enrichment ratio was not above 0.25.

For the variant EDSQ, the enrichment ratio was not above 0.25.

Turning to WSIP, the enrichment ratio is 0.327.

QRCS: the enrichment ratio is not above 0.25.

For the variant AYYN, the enrichment ratio is not above 0.25.

With HGHF, the enrichment ratio was not above 0.25.

As to MPIL, the enrichment ratio is not above 0.25.

With QKMH, the enrichment ratio was not above 0.25.

Take MHHC: the enrichment ratio was not above 0.25.

In the case of YTST, the enrichment ratio is not above 0.25.

In the case of QGTM, the enrichment ratio stood at 5.9.

For the variant HSCC, the enrichment ratio worked out at 1.15.

For NFVP, the enrichment ratio is not above 0.25.
